About 64,000 (15%) of roughly 420,000 compounds were called active. Inconclusive results, whose numbers are uncertain, are shown with a selection of clear calls. Calls come from the whole dose curve; as a rule, active = well fitted inhibition curve with a large enough effect; inconclusive = small, poorly fitted or top-dose-only effect; inactive = flat fitted curve, though single readings scatter. No potency is given beside an inconclusive call; the fits are too rough.
Assay: qHTS for Inhibitors of human tyrosyl-DNA phosphodiesterase 1 (TDP1): qHTS in cells in absence of CPT; note: nearly all actives have a fitted effect of over 55% in size
Conditions: DT40 Tdp1-/- hTDP1 cells, no CPT, ATP luminescence, 48 h; series mostly up to 46.2 µM
Outline: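 DT40 Tdp1-/-;hTDP1 cells, no CPT (DMSO vehicle only), 400 cells/well; compounds pin-transferred; ≥48 hr, 37 °C; CellTiter-Glo 30 min RT dark, luminescence read.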
Potency is the fitted concentration of half-maximal effect; tags give direction and shape of the fitted curve.

| Compound | Potency |
| --- | --- |
| CC(=O)c1ccc(N2CCN(C(=O)C3CCN(S(=O)(=O)c4ccc(Br)s4)CC3)CC2)cc1 | active: 16.4 µM |
| Cc1c(N/N=C(\C#N)C(=O)c2ccccc2)c(=O)n(-c2ccccc2)n1C | active: 3.26 µM |
| O=C(Nc1ccc(F)c(F)c1)c1cnn2c1NC(=C1CC1)C=C2C(F)(F)F | inactive |
| CCCNS(=O)(=O)c1ccc(CCC(=O)Nc2ccc3c(c2)OCCO3)cc1 | inactive |
| COc1cc(OC)c(NS(=O)(=O)c2cc3c(cc2C)NC(=O)CO3)cc1Cl | inconclusive [inhibitor, single point] |
| O=C(NCC(=O)N1CCN(c2ncc(C(F)(F)F)cc2Cl)CC1)c1ccc(Br)o1 | active: 18.4 µM |
| Cc1ccc(NC(=O)c2nc(S(C)(=O)=O)ncc2N(Cc2ccco2)Cc2ccccc2F)c(C)c1 | active: 9.2 µM |
| CCCCSc1nnc([C@@H](NC(=O)OC(C)(C)C)C(C)C)o1 | inconclusive [inhibitor, single point] |
| O=C(Nc1cnn(Cc2ccc(Cl)cc2Cl)c1)c1cc(-c2cccs2)on1 | inconclusive [inhibitor, partial curve] |
| CCOC(=O)C(C)n1cnc2c(nnn2-c2cccc(OC)c2)c1=O (stereo not drawn) | inactive |
| Cc1ccc(S(=O)(=O)NC(=O)N2CCN(Cc3c(F)cccc3Cl)CC2)cc1 | inactive |
| Cc1cccc(C(C(=O)NC2CCCC2)N(C(=O)c2csnn2)C2CCCC2)c1 (stereo not drawn) | inactive |
| c1ccc(C(c2nnnn2Cc2ccco2)N2CCN(c3nc4ccccc4s3)CC2)cc1 (stereo not drawn) | active: 14.6 µM |
| Cc1cnc(CNc2ncncc2-c2ccc(N(C)C)cc2)cn1 | inconclusive [inhibitor, single point] |
| Cn1c(SCC(=O)NCc2ccco2)nnc1-c1c[nH]c2ccccc12 | inactive |
| CC(=O)N1CCN(c2ccc(Nc3ncnc4c3oc3ccccc34)cc2)CC1 | active: 10.3 µM |
| NCCC(=O)N1c2ccccc2Sc2ccc(Cl)cc21 | inconclusive [inhibitor, single point] |
| Cc1cc(C)n(Cc2ccccc2Cl)n1 | inactive |
| CCN(C(=O)COC(=O)c1ccccc1Cc1ccccc1)c1c(N)n(Cc2ccccc2)c(=O)[nH]c1=O | inconclusive [inhibitor, single point] |
| Cc1cc(C)nc(SCC(=O)Nc2ncc(Cc3ccc(Cl)c(Cl)c3)s2)n1 | inconclusive [inhibitor, single point] |
| CCC[C@@H](CN[C@@H](CNC)[C@H](C)CC)NCC1CCC(C(C)(C)C)CC1 (stereo partly drawn) | active: 0.651 µM |
| Cc1ccc(C(=O)N(CC(C)C)c2nc3ccccc3s2)o1 | inconclusive [inhibitor, single point] |
| C=C1CCN(c2ccc(C(=O)NCc3ccc(C)cc3)cc2[N+](=O)[O-])CC1 | inactive |
| O=C(NC1CC1)c1ccc(NC(=O)C2CCC2)cc1 | inconclusive [inhibitor, single point] |
| S=C(NCCc1ccccc1)NCCc1ccccc1 | inconclusive [inhibitor, single point] |

| Compound | Potency |
| --- | --- |
| O=C(Nc1ccccc1)Nc1ccccc1C(=O)NCc1ccco1 | inactive |
| CCN(CC)S(=O)(=O)c1ccc(OC)c(NC(=O)c2cccs2)c1 | inactive |
| CCN(CC(=O)Nc1c(F)cccc1F)C(=O)/C=C/c1c(C)nn(-c2ccc(F)cc2)c1C | inconclusive [inhibitor, partial curve] |
| O=C(CSc1nc(-c2ccccc2)c(-c2ccccc2)[nH]1)Nc1ccc2c(c1)OCO2 | active: 13 µM |
| Cc1cccc(C)c1-n1nnnc1C1(C)CCC(=O)N1Cc1ccc(F)cc1 (stereo not drawn) | inconclusive [inhibitor, single point] |
| Cn1c(SCC(=O)N2CCOCC2)nnc1-c1ccncc1 | inactive |
| Cc1ccc(C)c(NC(=O)Nc2nnc(N(CC(C)C)CC(C)C)s2)c1 | inconclusive [inhibitor, single point] |
| COc1ccc(C(=O)Nc2sc(C)c(-c3ccccc3)c2C#N)cc1OC | active: 20.6 µM |
| Cc1ccc(NC(=O)CSc2ncnc3ccccc23)cc1S(=O)(=O)N1CCCCC1 | inconclusive [inhibitor, single point] |
| CNC(=S)N/N=C/c1cccc(OCc2ccccc2F)c1 | active: 23.1 µM |
| FC(F)(F)c1nc2nc(Cl)c(Cl)nc2[nH]1 | active: 20.6 µM |
| CCOC(=O)c1c(C)[nH]c(C)c1S(=O)(=O)N1CCC(C(=O)N2CCN(c3cccc(C)c3)C(C)C2)CC1 (stereo not drawn) | inconclusive [inhibitor, single point] |
| COc1ccc(Nc2ncccc2C(=O)Nc2ccccc2)cc1 | active: 29.1 µM |
| COc1cccc(CNC(=O)CCC2CCCN(C(=O)C3=CC(=O)CC(C)(C)O3)C2)c1 (stereo not drawn) | inconclusive [inhibitor, single point] |
| O=C(Nc1ccc(C(F)(F)F)cc1)c1cc(S(=O)(=O)NC2CCCCCC2)ccc1F | inconclusive [inhibitor, single point] |
| CCOC(=O)c1ccc(CN(Cc2ccc(F)cc2)S(=O)(=O)c2ccc(F)cc2)cc1 | inconclusive [inhibitor, partial curve] |
| CCOc1cccc2sc(NC(=O)c3ccc(S(=O)(=O)N4CCCc5ccccc54)cc3)nc12 | inactive |
| Cc1ccccc1S(=O)Cc1ccc(C(=O)NC2CCCCCC2)o1 (stereo not drawn) | inconclusive [inhibitor, single point] |
| OC(COc1ccc(Cl)cc1Cl)Cn1ccnc1 (stereo not drawn) | inconclusive [inhibitor, single point] |
| Cc1noc(C)c1-c1cc(N(C)C)ncn1 | active: 23.1 µM |
| CCOc1ncccc1C(=O)NNC(=O)c1csc(N2CCOCC2)n1 | inconclusive [inhibitor, single point] |
| COc1cc(CNC(C)(C)CO)cc(Br)c1OCc1ccc(Cl)cc1Cl | inconclusive [inhibitor, single point] |
| Cc1cc(/C=C(\C#N)C(=O)NCC2CCCO2)c(C)n1-c1ccc(Cl)cc1 (stereo not drawn) | inconclusive [inhibitor, partial curve] |
| CCOC(=O)c1nnn(-c2nonc2N)c1CS(=O)(=O)c1ccccc1 | inactive |
| O=C(CNS(=O)(=O)c1cccs1)N1CCN(c2ccccc2Cl)CC1 | inconclusive [inhibitor, single point] |

| Compound | Potency |
| --- | --- |
| COc1cccc(-c2sc3ccccc3c2-c2ccc(OCCN(C)C)cc2)c1 | active: 18.4 µM |
| Cc1ccccc1CNC(=O)C(=O)NCCC1CCCCN1S(=O)(=O)c1cccs1 (stereo not drawn) | inconclusive [inhibitor, single point] |
| S=C(NCCN1CCOCC1)Nc1ccccc1Cl | inactive |
| COCCCNC(=S)NNC(=O)c1ccccn1 | inconclusive [inhibitor, single point] |
| Cc1ccccc1N1CCN(CCc2nnc3n2CCCC3)CC1 | inconclusive [inhibitor, single point] |
| Clc1c(-c2nnc3n2CCC3)sc2ccccc12 | inconclusive [inhibitor, single point] |
| O=[N+]([O-])c1ccc(-c2ccc(/C=N/Nc3nc(NCc4ccccc4)nc(N4CCOCC4)n3)o2)cc1 | active: 16.4 µM |
| CCn1c(COc2ccccc2)nnc1SCC(=O)Nc1cc(OC)ccc1OC | inconclusive [inhibitor, partial curve] |
| CCN(CC)CCNC(=O)c1ccc(N2CCCCC2)c(NS(=O)(=O)c2ccc(C)cc2)c1 | active: 20.6 µM |
| O=C(OC1CCCCC1)c1ccc(NC(=O)C2CCCCC2)cc1 | active: 20.6 µM |
| Cc1ccc2c(CNCc3cccc(Cl)c3)c(C(=O)O)n(Cc3ccc(F)cc3Cl)c2c1 | active: 3.26 µM |
| COc1cc2c(cc1OC)C(C)N(C(=S)NC(=O)c1ccccc1)CC2 (stereo not drawn) | active: 20.6 µM |
| Cc1cc(C)c2c(CN3CCCCCCC3)cc(=O)oc2c1 | inconclusive [inhibitor, single point] |
| Cc1cccnc1NC(=O)c1cccc(S(=O)(=O)N2CCCc3ccccc32)c1 | inconclusive [inhibitor, single point] |
| Cc1ccc(C(=O)Nc2ccc3nc(SCC(=O)N4CCc5ccccc54)sc3c2)cc1 | inconclusive [inhibitor, partial curve] |
| O=C(Nc1ccc([N+](=O)[O-])cc1)c1nc[nH]c1C(=O)NC1CCCCC1 | inconclusive [inhibitor, single point] |
| COc1ccc(NC(=O)c2cc(C3CCCCN3C(=O)c3cc(OC)c(C)c(OC)c3)on2)c(C)c1 (stereo not drawn) | inconclusive [inhibitor, single point] |
| O=C(Cn1cc(SCc2cccc(F)c2)c2ccccc21)N1CCCC1 | active: 20.6 µM |
| Cc1ccc(C(=O)Nc2nc(C(C)(C)C)cs2)s1 | inconclusive [inhibitor, single point] |
| CCc1cc2c(=O)n(CC(=O)NCCc3ccc(OC)c(OC)c3)cnc2s1 | inactive |
| Cc1cccc(CSCCNC(=O)CN(c2cc(C)cc(C)c2)S(C)(=O)=O)c1 | inconclusive [inhibitor, single point] |
| COc1cccc(CC(=O)Nc2ccc(S(=O)(=O)N3CCCCC3)cc2)c1 | inconclusive [inhibitor, single point] |
| CC(=O)O[C@H]1[C@H](O)[C@H](Oc2c(O)c(C)c3c4c2[C@@H](C)CC[C@@H]4[C@@H](C)C[C@H]3C=C(C)C)O[C@@H](C)[C@H]1O | active: 18.4 µM |

— PubChem BioAssay AID686978 (National Center for Advancing Translational Sciences (NCATS), 2013)
